Laboratory results published in paper PMC4336329 (PLoS ONE, 2015).
Out of some 310,000 compounds screened, about 14,000 (4.5%) showed an effect of 50% or more. The effect is printed as a negative number. The list shows a part of the results.

biological target: human ether-à-go-go-related gene (hERG) potassium channel (human, UniProt Q12809); assay: primary screen, population patch clamp on CHO cells stably expressing hERG
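Also: peak tail current of the secondary pulse compared with the same well before compound.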

human ether-à-go-go-related gene (hERG) potassium channel, sequence (Q12809 whole entry, looked up): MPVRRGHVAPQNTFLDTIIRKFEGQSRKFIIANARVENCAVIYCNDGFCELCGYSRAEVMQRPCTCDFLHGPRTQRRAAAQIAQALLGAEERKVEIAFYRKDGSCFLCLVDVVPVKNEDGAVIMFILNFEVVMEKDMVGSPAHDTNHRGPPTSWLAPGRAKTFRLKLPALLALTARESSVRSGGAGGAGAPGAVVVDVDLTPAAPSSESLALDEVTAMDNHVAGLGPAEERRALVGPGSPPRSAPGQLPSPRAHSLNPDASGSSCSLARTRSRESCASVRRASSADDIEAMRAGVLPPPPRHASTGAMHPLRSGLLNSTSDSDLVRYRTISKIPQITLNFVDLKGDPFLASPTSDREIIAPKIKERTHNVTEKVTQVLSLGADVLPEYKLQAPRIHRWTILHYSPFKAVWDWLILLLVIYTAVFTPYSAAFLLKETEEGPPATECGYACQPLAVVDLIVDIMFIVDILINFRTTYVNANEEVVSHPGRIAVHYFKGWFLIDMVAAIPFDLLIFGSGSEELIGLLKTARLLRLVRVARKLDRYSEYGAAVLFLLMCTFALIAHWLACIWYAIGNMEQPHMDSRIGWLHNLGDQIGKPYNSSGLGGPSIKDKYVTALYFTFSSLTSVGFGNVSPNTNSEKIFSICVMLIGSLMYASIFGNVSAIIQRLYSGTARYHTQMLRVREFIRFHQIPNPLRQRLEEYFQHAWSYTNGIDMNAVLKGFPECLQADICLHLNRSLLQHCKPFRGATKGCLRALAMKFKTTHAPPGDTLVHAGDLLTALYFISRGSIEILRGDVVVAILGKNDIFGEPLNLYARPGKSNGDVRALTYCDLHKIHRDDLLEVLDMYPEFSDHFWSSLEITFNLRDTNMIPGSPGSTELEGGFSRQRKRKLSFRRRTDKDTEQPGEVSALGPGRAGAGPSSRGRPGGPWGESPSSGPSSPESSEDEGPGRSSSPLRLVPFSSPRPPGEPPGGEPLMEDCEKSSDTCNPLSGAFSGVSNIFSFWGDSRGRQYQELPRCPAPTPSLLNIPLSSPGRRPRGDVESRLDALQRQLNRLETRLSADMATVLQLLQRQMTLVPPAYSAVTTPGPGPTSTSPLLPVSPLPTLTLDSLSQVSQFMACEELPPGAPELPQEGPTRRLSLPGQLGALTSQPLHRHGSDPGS

Row | Structure (SMILES) | hERG current change (%, negative = inhibition) at 10uM [%]
1 | Cc1ccc(NC(=O)C2CCN(S(=O)(=O)c3ccc4c(c3)CC(C)N4C(=O)C3CCC3)CC2)nc1 (stereo not shown) | -5.5
2 | CCOC(=O)c1sc(NC(=O)C2CCC2)cc1C | -8.33
3 | Cc1ccc2nc(SCc3ccc([N+](=O)[O-])cc3)[nH]c2c1 | -65.1
4 | CCCCC(=O)Nc1ccc(NC(=S)NC(=O)CC)cc1OC | -0.84
5 | CCOC(=O)CC(=O)CSc1nc(-c2ccccc2)cc(-c2ccccc2)c1C#N | 10.1
6 | Cc1cccc(N2CN=c3s/c(=C\c4ccccn4)c(=O)n3C2)c1 | -1.21
7 | Cn1nnc2cc(C(=O)NCCC3=CCCCC3)ccc21 | -6.14
8 | CCn1c(C)cc(/C=C2\SC(=O)N(CC(=O)Nc3ccc(C)c(C)c3)C2=O)c1C | -2.65
9 | CCC(=O)n1nc(-c2ccco2)nc1N | 10.8
10 | CC(=O)c1ccc2c3c(ccc(O)c13)CC2 | 5.71
11 | Cc1[nH]c2ccccc2c1CCNC(=O)CCC(=O)c1ccccc1 | -0.284
12 | Cc1cccc(NS(=O)(=O)c2cccc3nonc23)c1 | 18.2
13 | CCCCOC(=O)c1ccc(-c2ccc(/C=N/NC(=S)NCC)o2)cc1 | 3.27
14 | Cc1ccc(NC(=O)C(c2ccccc2)N2CCN(C(=O)c3ccco3)CC2)cc1 (stereo not shown) | -72.9
15 | CC(=O)Nc1ccccc1C(=O)OCC(=O)c1ccccc1Cl | -12
16 | CC12CCC(C(=O)NCc3ccc(F)cc3)(OC1=O)C2(C)C (stereo not shown) | 22.4
17 | COC(=O)c1cc2cc(Cl)ccc2nc1SC | 15.2
18 | CC(=O)Nc1ccc(NC(=O)CSc2nnc3ccc(-c4cccnc4)nn23)cc1 | 19.8
19 | CCOP(=O)(c1ccc(N(C)C)cc1)C(O)c1cccnc1 (stereo not shown) | -3.86
20 | CN(c1ccccc1)c1cc(Br)nc(Br)c1 | 3.76

Row | Structure (SMILES) | hERG current change (%, negative = inhibition) at 10uM [%]
21 | COc1cc(OC)cc(-c2cc3ncccc3cn2)c1 | -18.2
22 | O=C(Oc1ccccc1)c1cc2ccccc2o1 | 13.2
23 | CS(=O)(=O)N1CCN(c2ccccc2NC(=S)NC(=O)c2cccs2)CC1 | 9.85
24 | Cc1nn(C)c(C(=O)N2CCc3ccccc32)c1Cl | 2.37
25 | CCOn1c(=O)c(-c2ccc(Br)cc2)[n+]([O-])c2ccccc21 | 13.6
26 | O=C(CN1CCN(C(=O)C2CCCO2)CC1)Nc1ccc(Cl)cc1 (stereo not shown) | -40.9
27 | O=C(NCCCc1ccccc1)c1ccc(F)cc1 | 2.13
28 | Cc1nc2ccccc2c(=O)n1/N=C/c1ccccn1 | -3.77
29 | CCOC(=O)C1=C(C)N=C2SC(C(=O)OC)=CC(=O)N2C1c1ccc(OC)cc1 (stereo not shown) | -8.56
30 | CN(C)C/C=C/C(O)(c1ccccc1)c1ccccc1 | -61.5
31 | Cn1cc([N+](=O)[O-])c(C(=O)N/N=C/c2ccncc2)n1 | 3.46
32 | CC(=O)Nc1ccc2cc3ccc(NC(C)=O)cc3nc2c1 | 23.4
33 | COc1ccc2c(c1OC)c(=O)n1c3ccc(OC(C)C(=O)NCCN4CCOCC4)cc3c3ccnc2c31 (stereo not shown) | -2.67
34 | Cc1cccc(CN2C(=O)[C@H]3Cc4c([nH]c5ccccc45)C(C)(C)N3C2=O)c1 | -1.56
35 | CCOc1cc(C(=S)N2CCOCC2)ccc1OC | 11.2
36 | Cc1oc(C(C)(C)C)cc1C(=O)Nc1ccc(C(=O)O)cc1 | -13.7
37 | O=C(Cc1ccc([N+](=O)[O-])cc1)NCc1ccncc1 | -20.6
38 | Cc1ccc(N2CC(C(=O)Nc3cc(C)ccc3F)CC2=O)cc1 (stereo not shown) | -0.716
39 | CCN(CC)S(=O)(=O)c1ccc(C)c(NC(=O)CNCCN(C(C)C)C(C)C)c1.O=C(O)C(=O)O | -75.5
40 | COc1ccc2oc(C(=O)Nc3nccs3)c(C)c2c1 | 16.7

Row | Structure (SMILES) | hERG current change (%, negative = inhibition) at 10uM [%]
41 | Cc1nc2ccccc2n1CC(=O)NCCN1CCOCC1 | -1.03
42 | O=C(Cn1nnc(-c2cccs2)n1)Nc1ccccc1C(F)(F)F | 5.76
43 | C=CCn1c(SCC(=O)Nc2cc(C)ccc2OC)nnc1-c1ccco1 | -44.2
44 | C/C(=N\Nc1cccc([N+](=O)[O-])c1)c1cc2ccccc2o1 | 5.37
45 | C=CCn1c(SCC(=O)NCc2ccc3c(c2)OCO3)nnc1C1COc2ccccc2O1 (stereo not shown) | -29.8
46 | CC(C)c1ccc(NC2CCCN(C(=O)c3cnn(C(C)C)c3)C2)cc1 (stereo not shown) | -9.22
47 | COc1ccc(CCNC(=S)N2CCN(S(=O)(=O)c3ccc(Cl)cc3)CC2)cc1 | 22
48 | COc1ccc(CN2CCn3ncc(C(=O)Nc4cc(C)cc(C)c4)c3C2=O)cc1 | 9.29
49 | CCOC(=O)Cc1csc(NS(=O)(=O)c2ccc(SC)cc2)n1 | 11.4
50 | CC1(C)Cc2c(C#N)c(OCC(=O)c3ccc(Cl)cc3)nc(-c3ccoc3)c2CO1 | 15.3
51 | Nc1nn(-c2ccccc2Cl)cc1-c1nn[nH]n1 | 23.2
52 | Cc1ccc(Cn2cc(C=O)c3ccccc32)cc1 | 1.48
53 | Cc1nc2c(s1)sc1ccccc12 | -0.859
54 | CC(C)CCN1C(=O)c2ccc(C(=O)OCC(=O)N(C)C3CCS(=O)(=O)C3)cc2C1=O (stereo not shown) | -8.41
55 | COc1ccc(CC(=O)Nc2ccc(-c3nnc(-c4ccccc4)o3)cc2)cc1 | -13.1
56 | C#CCOc1ccc(Br)cc1C(c1c(C)[nH][nH]c1=O)c1c(C)[nH][nH]c1=O | 17.6
57 | Cc1ccc(C)c2[nH]c(=O)c(CCNC(=O)CC(C)(C)C)cc12 | 7.84
58 | Cc1onc(-c2c(F)cccc2Cl)c1C(=O)NC1CC1 | 14.6
